In all, about 110,000 compounds were measured (“z-score”: median about -0.1, highest 2% from about 2 on). This is one part of the list. Activity calls are given as the source filed them.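 How the source made its calls: active means z-score in the third read window above 3 or below -3; inactive means the rest.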
The molecules below were run against Metabotropic glutamate receptor 8 (Rattus norvegicus) (UniProt P70579) (assay: mGluR8 Gi/Go-coupled signaling modulation – cell-based, rat, thallium flux, HTS, primary screen (AID 488969)). Settings: HEK293 rat mGluR8, GIRK (G protein-gated inwardly rectifying potassium channel) thallium flux, FluoZin2; at 10 µM; stronger effect = higher value; submaximal glutamate (EC20) added with thallium.
UniProt P70579, sequence (P70579 whole entry, looked up): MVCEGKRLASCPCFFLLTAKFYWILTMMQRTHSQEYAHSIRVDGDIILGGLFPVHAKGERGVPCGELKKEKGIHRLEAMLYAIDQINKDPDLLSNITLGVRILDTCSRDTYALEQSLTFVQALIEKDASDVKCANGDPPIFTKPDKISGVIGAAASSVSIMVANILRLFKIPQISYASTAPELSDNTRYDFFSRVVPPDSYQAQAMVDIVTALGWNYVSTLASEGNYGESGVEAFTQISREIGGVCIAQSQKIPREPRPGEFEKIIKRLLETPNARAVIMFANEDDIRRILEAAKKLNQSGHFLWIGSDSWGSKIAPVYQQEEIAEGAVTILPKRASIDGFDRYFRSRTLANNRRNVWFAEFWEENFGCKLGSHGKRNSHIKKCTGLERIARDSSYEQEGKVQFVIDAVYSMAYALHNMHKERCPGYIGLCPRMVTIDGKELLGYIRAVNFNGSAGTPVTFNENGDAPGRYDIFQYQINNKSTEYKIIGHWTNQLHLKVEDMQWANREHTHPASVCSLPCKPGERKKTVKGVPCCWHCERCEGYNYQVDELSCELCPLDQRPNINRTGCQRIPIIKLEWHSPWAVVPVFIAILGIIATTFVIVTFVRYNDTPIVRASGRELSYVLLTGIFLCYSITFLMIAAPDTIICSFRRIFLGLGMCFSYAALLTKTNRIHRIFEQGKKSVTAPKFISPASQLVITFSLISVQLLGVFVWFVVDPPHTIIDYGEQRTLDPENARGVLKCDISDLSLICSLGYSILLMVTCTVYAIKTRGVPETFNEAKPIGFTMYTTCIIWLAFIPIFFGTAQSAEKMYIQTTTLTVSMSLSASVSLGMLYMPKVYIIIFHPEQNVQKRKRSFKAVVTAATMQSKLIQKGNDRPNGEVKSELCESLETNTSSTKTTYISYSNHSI
`CC1CC(C)CN(c2oc(-c3ccco3)nc2C#N)C1` (configuration not stated) gave a z-score of -0.954.
`CC1=C(C(=O)OCc2ccccc2)C(/C=C/c2ccccc2)N2C(=O)CCSC2=N1` (configuration not stated) was tested, and the z-score was -0.252.
`COc1ccc(CC(=O)NN2C(=O)c3ccccc3C2=O)cc1` was tested, and the z-score was -0.0806.
With `Cc1ccc(C(=O)NCCc2csc(C)n2)cc1` the z-score was -0.0897.
For `CCOC(=O)c1cnc(SC)nc1Oc1cccc(NS(=O)(=O)c2ccc(F)cc2)c1`, the z-score was -0.952.
Work on `COc1ccc2[nH]c(C)cc(=O)c2c1` yielded a z-score of 0.623.
In the case of `Cc1nc(=O)c(-c2ccccc2)c(C)n1CCO`, the z-score is reported as -0.0934.
`CCSc1nnc(NC(=O)c2cc(C)on2)s1` showed a z-score of 0.752.
Work on `COc1cccc(/C=c2/s/c(=C(\C#N)C(=O)N3CCOCC3)n(-c3ccccc3)c2=O)c1` yielded a z-score of 0.155.
Work on `O=C(Nc1cccnc1)Nc1ccccc1Cl` yielded a z-score of 0.0762.
`CC(C)N(Cc1nc(-c2ccc(Cl)cc2)no1)C(=O)CCCN1C(=O)c2ccccc2C1=O` showed a z-score of -0.223.
Work on `COC(=O)c1ccc(Cn2cnc3c(cnn3-c3ccc(F)cc3)c2=O)o1` yielded a z-score of -0.635.
In the case of `Cc1cccc(NC(=O)CSc2nc3nc(C)cc(C)c3c(=O)[nH]2)c1`, the z-score is reported as -0.475.
In the case of `CCCCCCn1cc(C(=O)O)c(=O)c2ccccc21`, the z-score is reported as 0.132.
`Cc1ccc(S(=O)(=O)N(C)CC(=O)N2CCc3ccccc32)cc1` gave a z-score of 0.202.
For `Cc1noc(C)c1C(=O)N1CCOCC1`, the z-score was 0.0184.
In the case of `Cc1ccc(NC(=O)CC2CS(=O)(=O)CC2CC(=O)Nc2ccc(C)c(C)c2)cc1C` (configuration not stated), the z-score is reported as -0.017.
`Cc1ccc(CNCC(O)(c2ccccc2)c2ccc(F)cc2)cc1` (configuration not stated) showed a z-score of 0.253.
Work on `CC(=O)c1cccc(NC(=O)C2CCCN(S(=O)(=O)c3ccccc3)C2)c1` (configuration not stated) yielded a z-score of -0.67.
`Cc1cc(SCC(=O)c2cc3ccccc3o2)nc2ccccc12` was tested, and the z-score was 0.521.
For `Cc1ccc(Cl)cc1NC(=O)Cn1cccc1`, the z-score was -0.44.
Molecule `CCn1c(COc2c(C)cccc2C)nnc1SCC(=O)N1CCN(c2ccccc2)CC1` has a z-score of -0.677.
With `O=C(NCc1ccccn1)c1ccc(/C=N/O)nc1` the z-score was 0.75.
`Cc1ccc(-c2nc(N)sc2-c2ccccc2)cc1C` gave a z-score of -0.155.
Work on `N#CC(Nc1ccccc1)c1ccccc1OCc1ccccc1` (configuration not stated) yielded a z-score of -0.529.
Molecule `CCN(CC)CCOCCOc1ccccc1F` has a z-score of -1.06.
`Cc1ccccc1N1CCN(CCCN2C(=O)CC(=C(c3ccccc3)c3ccccc3)C2=O)CC1` showed a z-score of -0.18.
In the case of `COc1ccc(C2CC(C(F)(F)F)n3ncc(C(=O)Nc4c(C)n(C)n(-c5ccccc5)c4=O)c3N2)cc1` (configuration not stated), the z-score is reported as 0.575.
In the case of `CCn1cc(C=C2C(=O)c3ccccc3C2=O)c2ccccc21`, the z-score is reported as -0.398.
For `O=C1C2C3c4ccccc4C(c4ccccc43)[C@@H]2C(=O)N1c1cccnc1` (some centres not stated), the z-score was -0.0823.
Molecule `Cc1cccc(NC(=O)C2c3ccccc3C(=O)N3CCc4ccccc4C23)n1` (configuration not stated) has a z-score of 0.0262.
`O=C(Nc1ccccc1C(=O)NCC1CCCO1)c1ccco1` (configuration not stated) was tested, and the z-score was -0.0929.
`CC1=C(C(=O)Nc2ccc(C)cc2)C(c2ccc(N(C)C)cc2)NC(=O)N1` (configuration not stated) gave a z-score of -0.286.
In the case of `CC(C)Cc1nc(C(N)=O)c2[nH]c(=O)n(-c3ccc(F)cc3)c2n1`, the z-score is reported as -0.334.
Molecule `Cc1ccc2nc(N3C(=O)C(O)=C(C(=O)c4cc5ccccc5o4)C3c3cccs3)sc2c1` (configuration not stated) has a z-score of 0.257.
`O=C(Cn1cnc2c(oc3ccccc32)c1=O)NCCc1ccccc1` gave a z-score of -1.03.
`Cc1ccc(S(=O)(=O)Nc2ccc(NC(=O)CN3CCCCC3)c(Cl)c2)cc1` showed a z-score of -0.137.
`Cc1ccc(NC(=S)NNC(=O)CCn2cc(C)cn2)cc1` was tested, and the z-score was -0.254.
`Cc1ccc(N2CCN(S(=O)(=O)N3CCCCCC3)CC2)cc1Cl` was tested, and the z-score was 0.295.
`CCCCn1c(SCC(=O)NCc2ccco2)nc2c1c(=O)n(C)c(=O)n2C` was tested, and the z-score was 0.274.
Work on `O=C(Nc1ccc(-c2nc3ccccc3o2)cc1)c1ccc(N2CCOCC2)c([N+](=O)[O-])c1` yielded a z-score of -0.0721.
`CCOC(=O)N1CCN(C(=O)C(CC)c2ccccc2)CC1` (configuration not stated) was tested, and the z-score was -0.202.
`CC(=O)Oc1ccc(-c2cccc(C(=O)OCC(=O)Nc3ccccc3Oc3ccccc3)c2)cc1` was tested, and the z-score was -0.327.
Molecule `CCC(C)(C)NC(=O)C(c1ccco1)N(C(=O)c1csnn1)c1cccc(F)c1` (configuration not stated) has a z-score of -0.194.
For `Cc1ccc(NC(=O)C(=O)NCCOc2ccc(Cl)cc2)c(C)c1`, the z-score was -0.154.
In the case of `COc1ccc(Cl)cc1C(=O)NNC(=O)c1cccc(S(=O)(=O)N(C)C)c1`, the z-score is reported as 0.0171.
Work on `Cn1c(CC(=O)Nc2ccc(Cl)c(Cl)c2)nnc1SCC(=O)Nc1nccs1` yielded a z-score of -0.213.
For `CC(C)n1c(O)c(/C=C2\C=Nc3ccccc32)sc1=Nc1ccccc1`, the z-score was 0.205.
Work on `Cc1ccc(-n2c(SCC(=O)c3c(N)n(C)c(=O)n(C)c3=O)nc3sc4c(c3c2=O)CCCC4)c(C)c1` yielded a z-score of 0.0121.
In the case of `COc1ccc(CN2CC(C(=O)NCCc3ccccc3)CC2=O)cc1` (configuration not stated), the z-score is reported as 0.541.
`CC(C(=O)NCCN1C(=O)S/C(=C\c2cccnc2)C1=O)N1C(=O)c2ccccc2C1=O` (configuration not stated) gave a z-score of -0.258.
In the case of `O=C(NC1CCCCC1)C(c1ccco1)N(C(=O)c1csnn1)C1CCCC1` (configuration not stated), the z-score is reported as 0.0116.
Work on `CCN(CCO)c1ncnc2c1sc1nc(CC(C)C)c3c(c12)CC(C)(C)OC3` yielded a z-score of -0.758.
`CC1CCN(C(=S)NC2CCCCC2)CC1` gave a z-score of -0.176.
Work on `O=C(CN(CC1CCCO1)C(=O)CNS(=O)(=O)c1ccc(Cl)cc1)NCC1CCCO1` (configuration not stated) yielded a z-score of 0.1.
In the case of `CCOc1ccc(NC(=O)N(C2CCCCC2)C(C)c2cccnc2)cc1` (configuration not stated), the z-score is reported as 0.0145.
`COc1ccccc1CNC(=O)c1csc(Cc2ccc(Cl)cc2)n1` gave a z-score of -0.161.
For `COc1ccc(-n2c(-c3cnccn3)n[nH]c2=S)cc1`, the z-score was 0.268.
`CCOC(=O)Cc1csc(NC(=O)c2ccc(S(=O)(=O)N3CCCCC3)cc2)n1` gave a z-score of -0.293.
`COc1cc(NC(=O)CN2CCN(Cc3ccc4c(c3)OCO4)CC2)cc(OC)c1` was tested, and the z-score was -0.258.
`O=C(CSc1nnc(-c2ccccc2)o1)n1c2c(c3ccccc31)CCCC2` showed a z-score of 0.663.
In the case of `CC(C)Oc1cc(NC(=O)CSCC(=O)Nc2cccc(C(F)(F)F)c2)c(Cl)cc1Cl`, the z-score is reported as -0.183.
Molecule `Cc1cc(C)n2nc(C(=O)Nc3nnc(C4CC4)s3)nc2n1` has a z-score of -0.205.
Molecule `COCCNC(=O)C(c1ccc(C)o1)N(Cc1ccco1)C(=O)c1snc(C(N)=O)c1N` (configuration not stated) has a z-score of -0.103.
`Cn1nc(-c2ccc(Cl)cc2)c2cc(C(=O)N3CCN(C(=O)c4ccco4)CC3)sc21` was tested, and the z-score was -0.708.
Molecule `CC(C)(C)C1CCC2(CC1)C(C#N)=C(SCC(=O)NC1CCCCC1)NC(=O)C2C#N` (configuration not stated) has a z-score of -0.215.
`N#Cc1c(-c2ccco2)nc(SCC(=O)Nc2cccc(Cl)c2)[nH]c1=O` showed a z-score of -2.83.
In the case of `N=C1C(=O)OCC1c1ccccc1NC(=O)CN1CCOCC1` (configuration not stated), the z-score is reported as -1.61.
In the case of `CCN(CC(=O)Nc1ccccc1OC)C(=O)C1CC2C=CC1C2` (configuration not stated), the z-score is reported as -0.115.
`O=C(CCn1cnc(-c2ccccc2)c1-c1ccccc1)N/N=C/c1ccc(O)cc1` showed a z-score of -1.15.
`Clc1ccc(-n2nnnc2CN2CCOCC2)cc1` gave a z-score of -0.108.
In the case of `Cc1c(C2Nc3ccccc3NC3=C2C(=O)CC(C)(C)C3)cnn1C` (configuration not stated), the z-score is reported as active: 4.64.
Work on `COCCNC(=O)c1ccccc1NC(=O)c1ccccc1N(C)S(=O)(=O)c1ccc(C)cc1` yielded a z-score of 0.0191.
`CCOc1ccc(N2C(=O)NC(Cc3c[nH]c4ccccc34)C2=O)cc1` (configuration not stated) showed a z-score of -0.0642.
In the case of `O=C(CCCc1ccccc1)N1CCN(c2ccc([N+](=O)[O-])cc2)CC1`, the z-score is reported as -0.394.
With `CN(C)c1ccc(NC(=O)Cn2c(=O)n(Cc3ccccc3)c(=O)c3ccccc32)cc1` the z-score was 0.179.
`CC(=O)OCCN1C(=O)c2cccnc2C1=O` was tested, and the z-score was 0.491.
`CCN1CCN(C(=O)CCc2nc3ccccc3n2-c2ccccc2)CC1` showed a z-score of -0.235.
`O=C(O)CCc1ccc(-c2cccs2)n1CC1CCCO1` (configuration not stated) showed a z-score of 0.167.
Molecule `C/C(=N\NC(N)=O)C1(C)CCCCC1` has a z-score of -0.196.
`Cn1c(SCC(=O)Nc2ccccc2F)nnc1-c1cc2ccccc2o1` was tested, and the z-score was -0.145.
Work on `Cc1ccc(CNC(=O)COC(=O)c2ccc(Br)cc2)cc1` yielded a z-score of -0.265.
Molecule `COc1ccc(-c2nc(S(=O)(=O)c3ccccc3)c(N3CCOCC3)o2)cc1` has a z-score of -0.0916.
`O=C(CCC1CCCCC1)N1CCN(Cc2ccc3c(c2)OCO3)CC1` was tested, and the z-score was -0.343.
`COC(=O)[C@H](CCSC)NC(=O)Nc1cc(C)ccc1C` showed a z-score of -0.0345.
Molecule `CSc1oc(-c2ccc(F)cc2)nc1S(=O)(=O)c1ccc(F)cc1` has a z-score of -0.541.
`O=C(Nc1sc2c(c1C(=O)NC1CCCCC1)CCC2)c1ccco1` was tested, and the z-score was -0.079.
`COc1cc2c(cc1OC)C(C)N(C(C)=O)CC2` (configuration not stated) was tested, and the z-score was -0.56.
Work on `CCC(c1nnnn1C(C)(C)CC)N(CCN1CCOCC1)Cc1cc2cc(C)ccc2[nH]c1=O` (configuration not stated) yielded a z-score of -0.326.
`O=[N+]([O-])c1ccc(/C=N/Nc2nc(-c3ccccc3)c3cc(Br)ccc3n2)o1` gave a z-score of 0.0846.
`CC1=C(C#N)C(NC(=O)c2ccc(Cl)cc2)(C(F)(F)F)C(=O)N1` (configuration not stated) was tested, and the z-score was -0.044.
In the case of `CC(C)[C@H](NC(=O)c1ccccc1)C(=O)OCC(=O)N1CCCCCC1`, the z-score is reported as -0.315.
In the case of `CCOc1ccc(N(CC)S(=O)(=O)c2ccc3c(c2)n(C)c(=O)c(=O)n3C)cc1`, the z-score is reported as -0.239.
With `CC1=CC(C#N)(C#N)C(C#N)(C#N)C(c2ccccc2)N1` (configuration not stated) the z-score was -0.143.
`O=C(COc1ncnc2sccc12)NC1CCCc2ccccc21` (configuration not stated) gave a z-score of -0.199.
In the case of `CC(C)CC(=O)Nc1ccc(S(=O)(=O)NCc2ccco2)cc1`, the z-score is reported as -0.479.
With `O=C(Nc1ccccc1)N1CC=C(c2ccc(F)cc2)CC1` the z-score was 0.309.
`Nn1cnc2sc3c(c2c1=O)CCC3` gave a z-score of 0.195.
With `Cc1[nH]n(-c2cccc3ccccc23)c(=O)c1/C=N/c1sc2c(c1C#N)CCC2` the z-score was active: 8.05.
Molecule `CCN(CC)S(=O)(=O)c1ccc(OC)c(NC(=S)Nc2ccc(C)c(C)c2)c1` has a z-score of -0.259.
For `C/C(=N/N=C/c1ccc(N(C)C)cc1)c1ccccc1`, the z-score was 0.00335.
Molecule `COc1ccc(CNC(=O)COC(=O)CCCOc2ccc(Cl)cc2Cl)cc1OC` has a z-score of -0.0987.
In the case of `CCN(CC)Cc1cc(NC2=NS(=O)(=O)c3ccccc32)ccc1OC(=O)C(C)C`, the z-score is reported as -1.44.
In the case of `O=[N+]([O-])c1ccc2c(c1)C(N1CCOCC1)/C(=C/COc1ccc3ccccc3c1Br)O2` (configuration not stated), the z-score is reported as -0.0823.
In the case of `CN1CCN(C(=O)c2sc(=S)n(-c3ccccc3)c2N)CC1`, the z-score is reported as active: 11.1.
In the case of `CCOC(=O)Cn1c(-c2ccccc2)nc2ccccc2c1=O`, the z-score is reported as 0.194.
`Cc1ccc(NC(=O)C2(c3ccccc3)CCCC2)nc1` showed a z-score of -0.464.
